# Data from PubChem BioAssay (NCATS).
# Several values for one entry are separate records, joined by “and”; a condition that tells them apart may be missing. Equal entries are not always repeated. The inconclusive results got no clear call from the source; some entries with a clear call stand among them for comparison. Potencies of inconclusive entries are doubtful fits and often do not repeat. Activity calls are given as the source filed them. Calls follow the shape of the dose curve; as a rule, active = well fitted curve in the direction sought with a large enough effect; inconclusive = small, poorly fitted or top-dose-only effect, or another doubt; inactive = no such curve, though single readings can be large; an effect the other way counts as inactive or inconclusive.
# Legend:
# [1] = P-glycoprotein substrates identified in KB-8-5-11 adenocarcinoma cell line, qHTS therapeutic library screen (AID 1346987); also: nearly all actives have a fitted effect of over 65% in size
# In short: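 In this qHTS, P-gp-rich KB-8-5-11 cells received library compounds across a concentration range. Viability was quantified by luminescence after 72 h at 37 degree C.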
# CRL-7250 = normal cell line; assay: Cytotoxic Profiling of Annotated Libraries Using Quantitative High-Throughput Screening (AID 1296008); details: Five cell lines viability, CellTiter-Glo ATP luminescence, 48-72 h; max response: stronger effect = lower value; also: nearly all actives have a fitted effect of over 60% in size; as to max response: % is scaled to controls: 0 for no effect and ±100 for the full control effect
# In short: (§1)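 Cytotoxicity was measured as CellTiter-Glo ATP luminescence, read after 10 min at room temperature. Compound treatment of the cells lasted 48 or 72 hr at 37 degrees Celsius in a qHTS format.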
# HEK293 = assay: as above; details: Five cell lines viability, CellTiter-Glo ATP luminescence, 48-72 h; max response: stronger effect = lower value
# In short: as §1
# HaCat = assay: as above; details: Five cell lines viability, CellTiter-Glo ATP luminescence, 48-72 h; max response: stronger effect = lower value
# In short: as §1
# KB-3-1 = assay: as above; details: Five cell lines viability, CellTiter-Glo ATP luminescence, 48-72 h; max response: stronger effect = lower value
# In short: as §1
# NIH3T3 = assay: as above; details: Five cell lines viability, CellTiter-Glo ATP luminescence, 48-72 h; max response: stronger effect = lower value
# In short: as §1
# CAOV3 = assay: Primary qHTS to identify gynecologic anti-cancer compounds using libraries of approved drugs and bioactive compounds (AID 1345084); details: Gynecologic cancer cell panel viability, ATPlite luminescence, 48 h; series mostly up to 57.5 µM; also: nearly all actives have a fitted effect of over 55% in size; as to activity change, negative = cytotoxicity: % is scaled to controls: 0 for no effect and ±100 for the full control effect
# In short: (§2)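 Cell viability after 48 h drug treatment, ATPlite luminescence readout; five doses.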
# CASKI = assay: as above; details: Gynecologic cancer cell panel viability, ATPlite luminescence, 48 h; activity change, negative = cytotoxicity: at 57.5 µM (top of the series)
# In short: as §2
# HeLa = assay: as above; details: Gynecologic cancer cell panel viability, ATPlite luminescence, 48 h; series mostly up to 57.5 µM
# In short: as §2
# Hek293T = assay: as above; details: Gynecologic cancer cell panel viability, ATPlite luminescence, 48 h, control line for the selectivity index; series mostly up to 57.5 µM
# In short: as §2
# JEG-3 = assay: as above; details: Gynecologic cancer cell panel viability, ATPlite luminescence, 48 h; series mostly up to 57.5 µM
# In short: as §2
# OV90 = assay: as above; details: Gynecologic cancer cell panel viability, ATPlite luminescence, 48 h; series mostly up to 57.5 µM
# In short: as §2
# PA-1 = assay: as above; details: Gynecologic cancer cell panel viability, ATPlite luminescence, 48 h; series mostly up to 57.5 µM
# In short: as §2
# SKOV3 = assay: as above; details: Gynecologic cancer cell panel viability, ATPlite luminescence, 48 h; series mostly up to 57.5 µM
# In short: as §2
# Tov-21-G = assay: as above; details: Gynecologic cancer cell panel viability, ATPlite luminescence, 48 h; activity change, negative = cytotoxicity: at 57.5 µM (top of the series)
# In short: as §2
# C33A = assay: as above; details: Gynecologic cancer cell panel viability, ATPlite luminescence, 48 h; series mostly up to 57.5 µM
# In short: as §2
# Tov112D = assay: as above; details: Gynecologic cancer cell panel viability, ATPlite luminescence, 48 h; activity change, negative = cytotoxicity: at 57.5 µM (top of the series)
# In short: as §2
# [2] = Primary qHTS for inhibitors of nuclear receptor binding SET domain protein 2 (NSD2) in an isogenic RCH-ACV NSD2 p.E1099K mutant (9B) (AID 1645876); also: nearly all actives have a fitted effect of over 70% in size
# [3] = Primary qHTS for inhibitors of nuclear receptor binding SET domain protein 2 (NSD2) in an RCH-ACV wild type WT cells (2C) (AID 1645877); details: activity change, negative = cell killing: at 44.9 µM (top of the series); also: nearly all actives have a fitted effect of over 70% in size
# Es-2 = assay: Primary qHTS to identify gynecologic anti-cancer compounds using libraries of approved drugs and bioactive compounds (AID 1345084); details: Gynecologic cancer cell panel viability, ATPlite luminescence, 48 h; series mostly up to 57.5 µM; also: nearly all actives have a fitted effect of over 55% in size; as to activity change, negative = cytotoxicity: % is scaled to controls: 0 for no effect and ±100 for the full control effect
# In short: as §2
# Potency is read from the fitted curve at half-maximal effect; tags tell the direction and shape of the fitted curve.
structure (smiles),measurement,setting,value
CC(=O)Nc1nc(C)c(-c2nc(N3CCCC(O)C3)no2)s1 (stereo unspecified),Potency,[1],active: 18.4 µM
same,Potency,CRL-7250,active: 8.2 µM
same,Potency,HEK293,"inconclusive: 29.1 µM [inhibitor, single point]"
same,Potency,HaCat,active: 4.11 µM
same,Potency,KB-3-1,"inconclusive: 20.6 µM [inhibitor, single point]"
same,Potency,NIH3T3,active: 18.4 µM
same,Potency,CAOV3,"inconclusive: 39.8 µM [cytotoxic, single point]"
same,Potency,CASKI,"inconclusive: 28.2 µM [cytotoxic, partial curve, poor fit]"
same,Potency,HeLa,"inconclusive: 31.6 µM [cytotoxic, partial curve, poor fit]"
same,Potency,Hek293T,"inconclusive: 22.4 µM [cytotoxic, partial curve, poor fit]"
same,Potency,JEG-3,"inconclusive: 31.6 µM [cytotoxic, single point]"
same,Potency,OV90,"inconclusive: 28.2 µM [cytotoxic, single point]"
same,Potency,PA-1,"inconclusive: 12.6 µM [cytotoxic, partial curve, poor fit]"
same,Potency,SKOV3,"inconclusive: 12.6 µM [cytotoxic, partial curve, poor fit]"
same,Potency,Tov-21-G,"inconclusive: 39.8 µM [cytotoxic, single point]"
CC(C)n1nc(C#Cc2ccccc2)c2c(N)ncnc21,Potency,[1],active: 16.4 µM
same,Potency,CRL-7250,active: 16.4 µM
same,Potency,HEK293,"inconclusive: 29.1 µM [inhibitor, single point]"
same,Potency,HaCat,"inconclusive: 20.6 µM [inhibitor, partial curve]"
same,Potency,KB-3-1,"inconclusive: 18.4 µM [inhibitor, single point]"
same,Potency,NIH3T3,active: 11.6 µM
same,Potency,C33A,"inconclusive: 10 µM [cytotoxic, partial curve]"
same,Potency,CAOV3,"inconclusive: 15.8 µM [cytotoxic, partial curve]"
same,Potency,JEG-3,"inconclusive: 25.1 µM [rising, partial curve, poor fit]"
same,Potency,SKOV3,"inconclusive: 31.6 µM [cytotoxic, single point]"
same,Potency,Tov-21-G,"inconclusive: 39.8 µM [cytotoxic, single point]"
same,Potency,Tov112D,"inconclusive: 15.8 µM [cytotoxic, partial curve, poor fit]"
CCn1c(=O)c(-c2ccc(-c3cncs3)cc2Cl)cc2cnc(Nc3ccc(N4CCN(C)CC4)cc3)nc21,Potency,CRL-7250,"inconclusive: 5.17 µM [inhibitor, full curve, poor fit]"
same,Potency,HEK293,"inconclusive: 16.4 µM [inhibitor, single point]"
same,Potency,HaCat,"inconclusive: 5.8 µM [inhibitor, single point]"
same,Potency,KB-3-1,active: 10.3 µM
same,Potency,NIH3T3,"inconclusive: 3.66 µM [inhibitor, full curve]"
same,Potency,Hek293T,inactive
same,Potency,OV90,inactive
same,Potency,PA-1,"inconclusive: 1 µM [cytotoxic, full curve, poor fit]"
same,Potency,Tov-21-G,"inconclusive: 7.94 µM [cytotoxic, full curve]"
Cc1c(NC(=O)OC[C@@H]2COCCN2)cn2ncnc(Nc3ccc4c(cnn4Cc4cccc(F)c4)c3)c12,Potency,[1],"inconclusive: 18.7 µM [inhibitor, partial curve] and inconclusive: 18.4 µM [inhibitor, single point]"
same,Potency,[2],"inconclusive: 14.5 µM [inhibitor, partial curve, poor fit]"
same,Potency,[3],"inconclusive: 14.5 µM [inhibitor, partial curve, poor fit] and active: 14.8 µM"
same,Potency,CRL-7250,"inconclusive: 37.2 µM [inhibitor, single point] and inconclusive: 29.1 µM [inhibitor, single point]"
same,Potency,HEK293,active: 14.8 µM and active: 23.1 µM
same,Potency,HaCat,active: 4.69 µM and active: 2.91 µM
same,Potency,KB-3-1,"inconclusive: 20.6 µM [inhibitor, single point]"
same,Potency,CAOV3,"inconclusive: 3.55 µM [cytotoxic, full curve]"
same,Potency,CASKI,"inconclusive: 35.5 µM [cytotoxic, single point]"
same,Potency,Hek293T,inactive
same,Potency,OV90,"inconclusive: 39.8 µM [cytotoxic, single point]"
same,Potency,PA-1,"inconclusive: 20 µM [cytotoxic, single point]"
same,Potency,SKOV3,"inconclusive: 35.5 µM [cytotoxic, single point]"
C=C(C)C(=O)O[C@H]1[C@H]2C(=C)C(=O)O[C@@H]2C[C@@H](C)/C=C\C(=O)[C@](C)(O)[C@@H]1OC(C)=O,Potency,[2],"inconclusive: 2 µM [inhibitor, full curve, poor fit]"
same,Potency,CRL-7250,"inconclusive: 10 µM [inhibitor, single point]"
same,Potency,HEK293,"inconclusive: 2.24 µM [inhibitor, full curve, poor fit]"
same,Potency,HaCat,"inconclusive: 14.2 µM [inhibitor, single point]"
same,Potency,KB-3-1,"inconclusive: 8.93 µM [inhibitor, single point]"
same,Potency,NIH3T3,active: 7.09 µM
same,Potency,C33A,active: 11.2 µM
same,Potency,CAOV3,active: 8.91 µM
same,Potency,CASKI,"inconclusive: 20 µM [cytotoxic, single point]"
same,Potency,Es-2,active: 11.2 µM
same,Potency,HeLa,"inconclusive: 17.8 µM [cytotoxic, single point]"
same,Potency,Hek293T,"inconclusive: 5.01 µM [cytotoxic, partial curve, poor fit]"
same,Potency,JEG-3,active: 10 µM
same,Potency,OV90,"inconclusive: 11.2 µM [cytotoxic, single point]"
same,Potency,SKOV3,active: 11.2 µM
same,Potency,Tov112D,"inconclusive: 11.2 µM [cytotoxic, single point]"
CCOc1cc(C(C)(C)C)ccc1C1=N[C@@](C)(c2ccc(Cl)cc2)[C@@](C)(c2ccc(Cl)cc2)N1C(=O)N1CCN(CC(=O)N2CCOCC2)CC1,Potency,[1],"inconclusive: 18 µM [inhibitor, single point]"
same,Potency,CRL-7250,active: 14.8 µM
same,Potency,HEK293,active: 4.17 µM
same,Potency,HaCat,"inconclusive: 37.1 µM [inhibitor, single point]"
same,Potency,KB-3-1,"inconclusive: 11.4 µM [inhibitor, single point]"
same,Potency,NIH3T3,active: 10.1 µM
same,Potency,HeLa,"inconclusive: 28.2 µM [rising, partial curve, poor fit]"
same,Potency,Tov-21-G,"inconclusive: 4.47 µM [cytotoxic, partial curve, poor fit]"
COc1cc(N2CCN(C(C)=O)CC2)ccc1Nc1ncc(Cl)c(Nc2ccc(N3CCN(C(C)=O)CC3)cc2OC)n1,Potency,[1],active: 20.6 µM
same,Potency,CRL-7250,"inconclusive: 29.1 µM [inhibitor, single point]"
same,Potency,HEK293,"inconclusive: 10.3 µM [inhibitor, partial curve, poor fit]"
same,Potency,HaCat,"inconclusive: 7.31 µM [inhibitor, partial curve, poor fit]"
same,Potency,KB-3-1,"inconclusive: 20.6 µM [inhibitor, single point]"
same,Potency,NIH3T3,active: 4.11 µM
same,Potency,CAOV3,"inconclusive: 39.8 µM [cytotoxic, single point]"
same,Potency,CASKI,"inconclusive: 22.4 µM [cytotoxic, partial curve, poor fit]"
same,Potency,HeLa,"inconclusive: 17.8 µM [cytotoxic, partial curve, poor fit]"
same,Potency,Hek293T,"inconclusive: 39.8 µM [cytotoxic, single point]"
same,Potency,OV90,"inconclusive: 28.2 µM [cytotoxic, partial curve]"
same,Potency,PA-1,"inconclusive: 17.8 µM [cytotoxic, partial curve, poor fit]"
same,Potency,SKOV3,"inconclusive: 39.8 µM [cytotoxic, single point]"
same,Potency,Tov-21-G,"inconclusive: 31.6 µM [cytotoxic, partial curve, poor fit]"
same,Potency,Tov112D,"inconclusive: 39.8 µM [cytotoxic, single point]"
Nc1nc(Cl)nc2c1ncn2C1OC(CO)C(O)C1F (stereo unspecified),Potency,[1],"inconclusive: 0.259 µM [inhibitor, full curve]"
same,Potency,[3],active: 8.2 nM
same,Potency,CRL-7250,"inconclusive: 0.92 µM [inhibitor, full curve, poor fit]"
same,Potency,HEK293,active: 2.06 µM
same,Potency,HaCat,active: 1.46 µM
same,Potency,KB-3-1,"inconclusive: 0.651 µM [inhibitor, full curve]"
same,Potency,NIH3T3,active: 1.03 µM
same,Potency,CAOV3,active: 0.631 µM
same,Potency,CASKI,active: 3.98 µM
same,Potency,Es-2,"inconclusive: 0.398 µM [cytotoxic, full curve, poor fit]"
same,Potency,Hek293T,"inconclusive: 3.55 µM [cytotoxic, partial curve, poor fit]"
same,Potency,JEG-3,"inconclusive: 0.631 µM [cytotoxic, full curve]"
same,Potency,PA-1,active: 3.55 µM
same,Potency,SKOV3,"inconclusive: 0.794 µM [cytotoxic, full curve]"
same,Potency,Tov-21-G,"inconclusive: 1.41 µM [cytotoxic, full curve]"
Cc1cc(C)nc(SCC(=O)Nc2ncc(Cc3cccc4ccccc34)s2)n1,Potency,[2],"inconclusive: 29 µM [inhibitor, single point]"
same,Potency,CRL-7250,"inconclusive: 20.6 µM [inhibitor, single point]"
same,Potency,HEK293,"inconclusive: 29.1 µM [inhibitor, single point]"
same,outcome,HaCat,inactive
same,Potency,KB-3-1,"inconclusive: 25.9 µM [inhibitor, partial curve, poor fit]"
same,max response,NIH3T3,inactive: -0.172%
same,Potency,Es-2,inactive
same,Potency,OV90,inactive
FC(F)(F)c1ccc(CNc2ccc(Cc3c[nH]c4ncccc34)cn2)cc1,Potency,[1],"inconclusive: 18.4 µM [inhibitor, single point] and inconclusive: 20.6 µM [inhibitor, single point]"
same,Potency,[2],active: 16.3 µM and active: 10.5 µM
same,Potency,CRL-7250,"inconclusive: 23.1 µM [inhibitor, single point]"
same,Potency,HEK293,"inconclusive: 18.4 µM [inhibitor, single point]"
same,Potency,HaCat,"inconclusive: 29.1 µM [inhibitor, single point]"
same,Potency,KB-3-1,"inconclusive: 25.9 µM [inhibitor, single point]"
same,Potency,NIH3T3,"inconclusive: 16.4 µM [inhibitor, single point]"
same,Potency,C33A,"inconclusive: 39.8 µM [cytotoxic, partial curve, poor fit]"
same,Potency,CASKI,"inconclusive: 39.8 µM [cytotoxic, single point]"
same,Potency,HeLa,"inconclusive: 39.8 µM [cytotoxic, single point]"
same,Potency,Hek293T,"inconclusive: 31.6 µM [cytotoxic, single point]"
same,Potency,OV90,inactive
same,Potency,PA-1,"inconclusive: 22.4 µM [cytotoxic, single point]"
same,Potency,SKOV3,"inconclusive: 39.8 µM [cytotoxic, single point]"
same,Potency,Tov112D,"inconclusive: 39.8 µM [cytotoxic, single point]"
